# According to PubChem BioAssay AID2546 (National Center for Advancing Translational Sciences (NCATS), 2010):
# Among all 310,000 compounds or so, about 11,000 (3.5%) were called active. The shares of active, inactive and inconclusive entries below differ from those in the screen. The call rests on the fitted dose curve; in most records, active means well fitted inhibition curve with a large enough effect; inconclusive means small, poorly fitted or top-dose-only effect, or effect the other way; inactive means flat fitted curve, though single readings scatter. Potencies of inconclusive entries are left out as doubtful fits.
# Assay: VP16 counterscreen qHTS for inhibitors of ROR gamma transcriptional activity;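 further: Gal4-VP16 expression switched on by copper sulfate through the metallothionein promoter; nearly all actives have a fitted effect of over 50% in size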
# Conditions: Drosophila S2 Gal4-VP16 UAS-luciferase, luminescence, 20 h; activity, negative = inhibition: at 53.6 µM (top of the series)
# On the % scale 0 is the no-effect control and ±100 the full control effect; potency means the concentration at half of the fitted maximal effect; tags describe the fitted curve by direction and shape.
SMILES,"activity, negative = inhibition",Potency
O=C(O)CCCCCNC(=O)c1cccc(Br)c1,inactive: -18.8%,–
CC(C)(C)n1ncc2c(=O)n(CC(=O)NCc3ccc(F)cc3)cnc21,–,"inconclusive [inhibitor, single point]"
Cc1noc(C)c1C(=O)Nc1nc2ccc(S(C)(=O)=O)cc2s1,–,active: 11.2 µM
C[n+]1c2n(c3ccccc31)N=C(c1cc(C(C)(C)C)c(O)c(C(C)(C)C)c1)CS2,–,active: 7.94 µM
CCc1nc2ccccc2c(C(=O)NCc2ccccc2)c1C,inactive: -0.804%,–
CN(C(=O)CSc1nc2ccccc2n1CCc1ccccc1)C1CCS(=O)(=O)C1 (stereo not drawn),–,"inconclusive [inhibitor, single point]"
Cn1c(-c2cccc(Br)c2)n[nH]c1=O,inactive: -6.71%,–
O=C1CC(Cc2ccccc2)C(=O)N1c1ncccn1 (stereo not drawn),inactive: -11.3%,–
COc1cc(OC)c(C2Nc3cccc4cccc(c34)N2)c(OC)c1,inactive: -5.06%,–
CCCCN(CC(O)COc1cccc(C)c1)CC(O)COc1cccc(C)c1 (stereo not drawn),–,"inconclusive [inhibitor, single point]"
Cc1[nH]c2ccccc2c1C(=O)C(=O)NC1CC1,inactive: -14.6%,–
Cc1nc2ccccn2c1C(=O)N/N=C/c1ccc([N+](=O)[O-])o1,–,"inconclusive [inhibitor, single point]"
Cc1ccc(Nc2nnc(-c3ccccc3N)o2)cc1C,–,"inconclusive [inhibitor, full curve]"
Cc1cc(C)cc(OCc2ccc(C(=O)N3N=C(C(F)F)CC3(O)C(F)F)o2)c1 (stereo not drawn),–,"inconclusive [inhibitor, single point]"
COc1ccc2c(c1)[nH]c(=O)c1sc3ccccc3c12,–,"inconclusive [inhibitor, single point]"
c1ccc(Nc2ccnc(Nc3ccccc3)n2)cc1,–,"inconclusive [inhibitor, single point]"
NC(=O)c1ccccc1N/C=C/C(=O)c1ccc(Cl)cc1Cl,–,active: 3.98 µM
O=C(C1CCCO1)N1CCN(Cc2c(O)ccc3ccccc23)CC1 (stereo not drawn),inactive: 3.25%,–
Cc1cccc(NC(=S)N2CCN(c3ccccc3F)CC2)c1C,–,active: 10 µM

SMILES,"activity, negative = inhibition",Potency
CCOC(=O)c1cccc(NC(=O)/C=C/c2ccc3c(c2)OCO3)c1,–,"inconclusive [inhibitor, single point]"
Cc1ccc(NC(=S)N2CCC(c3ccc(C)cc3)C2)cc1 (stereo not drawn),–,active: 20 µM
Cc1cccc(Nc2n[nH]c(C)c2[N+](=O)[O-])c1,–,"inconclusive [inhibitor, full curve, poor fit]"
O=C(CN1C(=O)c2cccnc2Oc2ccc(Cl)cc21)NC1CCCCCC1,–,"inconclusive [inhibitor, single point]"
C=CCC1=C/C(=C\c2c(N)n3nc(CC(=O)N4CCCC4)sc3nc2=O)C=C(OC)C1=O,–,"inconclusive [inhibitor, single point]"
c1ccc(-c2nnc(CN3CCCc4ccccc43)o2)cc1,–,"inconclusive [inhibitor, single point]"
CCC(=O)Nc1ccc(NC(=O)c2ccccc2)nc1,–,"inconclusive [inhibitor, partial curve, poor fit]"
CCOC(=O)c1ccc(N(C(=O)c2ccco2)C(C(=O)NC2CCCCC2)c2ccncc2)cc1 (stereo not drawn),inactive: -7.95%,–
O=C(CCCn1cnc([N+](=O)[O-])n1)Nc1ccc(Cl)cc1Cl,–,"inconclusive [inhibitor, partial curve]"
S=c1[nH]nc(COc2ccccc2)n1C1CCCCC1,–,active: 3.98 µM
CC(C)(C)c1ccc(C(=O)NCC(=O)N2CCCC2)cc1,–,"inconclusive [activator, partial curve]"
CCC(c1c(C)[nH]oc1=O)c1c(C)[nH]oc1=O,–,"inconclusive [inhibitor, single point]"
CC(=O)n1cc(/C=N/NC(N)=S)c2ccccc21,–,"inconclusive [inhibitor, single point]"
COc1ccc(-c2noc(N3CCC(C(=O)NCc4ccccc4Cl)CC3)n2)cc1,inactive: -20.2%,–
Cc1ccc(C)c(NC(=S)NNC(=O)c2csc(C)c2)c1,–,"inconclusive [inhibitor, single point]"
c1ccc(C2=NNC(=NC3CC3)SC2)cc1,–,active: 12.6 µM
CS(=O)(=O)N1CCC2(CCCN(C(=O)Nc3ccccc3)C2)CC1,inactive: 3.79%,–
C/C(=N\Nc1nccnc1Cl)c1ccc(Cl)c(Cl)c1,–,"inconclusive [inhibitor, single point]"
COc1ccc2[nH]c3c(C)c4ccncc4c(C)c3c2c1,–,active: 4.47 µM
